PubChem BioAssay AID624417 (National Center for Advancing Translational Sciences (NCATS), 2012)
Among all 410,000 compounds or so, about 6,400 (1.6%) were called active. The inconclusive results got no clear call from the source; some entries with a clear call stand among them for comparison. Calls follow the shape of the dose curve; as a rule, active = well fitted inhibition curve with a large enough effect; inconclusive = small, poorly fitted or top-dose-only effect; inactive = no such curve, though single readings can be large or run the other way. Potencies of inconclusive entries are doubtful fits and often do not repeat.

Target: Glucagon-like peptide 1 receptor (Homo sapiens) (UniProt P43220)
Test: qHTS of GLP-1 Receptor Inverse Agonists (Inhibition Mode); also: nearly all actives have a fitted effect of over 55% in size
Settings: HEK293 GLP-1R CRE-luciferase, luminescence, 24 h, GLP-1R form is constitutively active; activity change, negative = inhibition: at 38.3 µM (top of the series) unless noted
In short: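 qHTS in 1536-well format: reporter HEK293 cells expressing constitutive GLP-1R activity in DMEM + 10% Nu serum, 24 hr with compounds at 37 deg C, luminescence read after 12 min with detection reagent.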
% is scaled to controls: 0 for no effect and ±100 for the full control effect; potency is read from the fitted curve at half-maximal effect; tags tell the direction and shape of the fitted curve.

Chain of UniProt P43220 (P43220 whole entry, looked up): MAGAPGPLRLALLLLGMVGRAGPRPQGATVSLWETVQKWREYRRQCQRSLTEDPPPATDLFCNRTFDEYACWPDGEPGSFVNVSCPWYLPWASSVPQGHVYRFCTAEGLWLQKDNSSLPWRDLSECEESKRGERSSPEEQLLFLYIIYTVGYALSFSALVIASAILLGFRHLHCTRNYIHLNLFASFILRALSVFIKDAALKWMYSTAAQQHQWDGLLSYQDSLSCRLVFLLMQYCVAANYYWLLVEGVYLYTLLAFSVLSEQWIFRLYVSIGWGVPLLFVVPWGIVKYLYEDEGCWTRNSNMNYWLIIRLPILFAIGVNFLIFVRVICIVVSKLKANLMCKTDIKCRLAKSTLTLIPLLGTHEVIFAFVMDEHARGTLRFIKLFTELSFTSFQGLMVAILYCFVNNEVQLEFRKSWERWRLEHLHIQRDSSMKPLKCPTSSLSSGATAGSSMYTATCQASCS

Potency, inconclusive:
CC(C)c1ccc(C2=CC(c3cccc(Cl)c3)n3c(nc4ccccc43)N2)cc1 (centres undefined) 10 µM [inhibitor, single point], Cc1ccc(Cl)cc1N1CCN(C(=O)c2cc3ccc4cccnc4c3[nH]2)CC1 28.2 µM [inhibitor, single point], O=C(O)C1CCCCC1C(=O)Nc1ccccc1Cl (centres undefined) 5.01 µM [inhibitor, partial curve], CC(C)=CCC[C@H](C)C[C@@H]1Cc2[nH]c(=S)[nH]c(=O)c2[C@@H](c2ccc(F)cc2)O1 28.2 µM [inhibitor, single point], Cc1cccc(C(=O)OCC(=O)NC(C)C2CC3CCC2C3)c1O (centres undefined) 10 µM [inhibitor, partial curve, poor fit], O=c1c2cc(Cl)ccc2nc(-c2ccccc2)n1O 14.1 µM [inhibitor, single point], COc1ccc2c(c1)O[C@@H](c1cccc(C(F)(F)F)c1)[C@H](OC(=O)Nc1ccc(OC(F)F)cc1)C2=O 10 µM [inhibitor, partial curve, poor fit], CCSc1nc2ccccc2n1CCOc1ccccc1 11.2 µM [inhibitor, partial curve, poor fit], COc1ccc(OC)c(C2Nc3c(C)cc(C)cc3-c3cc(C)nn32)c1 (centres undefined) 11.2 µM [inhibitor, partial curve, poor fit], COc1ccc(-c2nc3cnccn3c2Nc2ccc(C)cc2)cc1 28.2 µM [inhibitor, single point], CC(=O)c1cc(-c2ccccc2)n(CC(=O)Nc2cccc(C)c2)c1C 12.6 µM [inhibitor, partial curve, poor fit], COc1ccc(CCNC2CCC(c3ccccc3)CC2)cc1 (centres undefined) 22.4 µM [inhibitor, single point], CCOC(=O)c1csc(NC(=O)C2CCCCC2)n1 31.6 µM [inhibitor, single point], COc1ccc(C)cc1NC(=O)c1c2c(nc3ccccc13)C(=O)N(C1CCCCC1)C2 2 µM [inhibitor, full curve, poor fit], O=[N+]([O-])c1ccccc1S(=O)(=O)Oc1ccc(C(=S)N2CCOCC2)cc1 28.2 µM [inhibitor, single point], CCC(SC1=N/C(=C/c2ccccc2OC)C(=O)N1c1ccccc1)C(=O)Nc1cc(C)on1 (centres undefined) 22.4 µM [inhibitor, single point], COc1ccc(C2(C(=O)NCCc3ccccc3)CCCC2)cc1 12.6 µM [inhibitor, single point], COC(=O)c1ccc(Cl)c(NC(=O)NC23CC4CC(CC(C4)C2)C3)c1 7.94 µM [inhibitor, partial curve, poor fit], COc1ccc(NC(=O)c2cc(C)cc(C)c2)cc1S(=O)(=O)N1CCCCC1 12.6 µM [inhibitor, partial curve, poor fit], CCCCC(=O)Nc1ccc(C(=O)OC2CCCCC2)cc1 3.55 µM [inhibitor, partial curve, poor fit], CCOC(=O)c1ccccc1NC(=O)CSc1nnc(Cc2cccn2C)n1-c1ccc(F)cc1 12.6 µM [inhibitor, single point], COC(=O)[C@@H](CC(C)C)NS(=O)(=O)N(Cc1ccccc1)[C@@H](CC(C)C)C(=O)OC 20 µM [inhibitor, single point], CC1=C(C(=O)N2CCCCCC2)CC(CC(=O)NCc2cccc3ccccc23)C(=O)N1CCC1=CCCCC1 (centres undefined) 28.2 µM [inhibitor, single point], O=C(c1nc2ccccn2c1CN1CCC(Cc2ccccc2)CC1)N1CCCC1 31.6 µM [inhibitor, single point], COc1cc(OC)c(OC)cc1/C=C/C(=O)c1ccc(NS(=O)(=O)c2ccc(C)cc2)cc1 28.2 µM [inhibitor, single point], CC(=O)c1ccc(OCc2cc(C(=O)N3CC[C@@H]4CCCC[C@H]4C3)no2)cc1 28.2 µM [inhibitor, single point], CC(C)(C)C(=O)Nc1ccc(-c2cn3ccsc3n2)cc1 8.91 µM [inhibitor, partial curve, poor fit], CN1C(=O)C2(Oc3ccccc3C3CC(c4ccccc4)=NN32)c2ccccc21 (centres undefined) 11.2 µM [inhibitor, single point], COc1ccccc1[C@]1(C)ON(c2ccccc2C(F)(F)F)C1=O 7.94 µM [inhibitor, partial curve, poor fit], CC(=O)c1cccc(NC(=O)Nc2ccc(C(=O)N3CCOCC3)cc2)c1 1.78 µM [inhibitor, partial curve, poor fit], O=C(CCC(=O)c1ccc(Oc2ccccc2)cc1)Nc1ccc(Cl)cc1Cl 20 µM [inhibitor, single point], O=C(Cc1ccc(Cl)cc1)Nc1ccc(Br)cn1 28.2 µM [inhibitor, single point], COC(=O)[C@@]12CCCN1[C@H](c1ccc(-c3ccc(Cl)c(Cl)c3)cc1)[C@H]1C(=O)N(C)C(=O)[C@H]12 28.2 µM [inhibitor, single point]

Activity change, negative = inhibition, inactive:
Cc1cccc(NC(=O)CCC(=O)N/N=C/c2ccco2)c1C 0.338%, CCCNC(=O)c1ccc(C2SCC(=O)N2Cc2ccccc2)cc1 (centres undefined) 0%, CCN(C(=O)CSc1ncc2c(n1)-c1cc(Cl)ccc1N(Cc1ccccc1)S2(=O)=O)c1cccc(C)c1 -18.1%, Cc1ccc(NC(=O)c2ccc(NCCCN3CCC(C)CC3)c([N+](=O)[O-])c2)cc1F -32.4%, O=C(N=C1SC2CS(=O)(=O)CC2N1c1ccc(Br)cc1Cl)C1CC1 (centres undefined) 4.4%, CCN1CSC(=S)N(Cc2ccc(OC)cc2)C1 -10.6%
